Experimental data from patent US20210261654A1 (BEIJING BEYOND BIOTECHNOLOGY, published 2021).

target: T1, Recombinant human TNF-α (Sino Biological Inc., catalog number: 10602-HNAE) (human, UniProt P01375 fragment); experiment: SPR (Biacore T100, 25 C); protein captured by anti-IgG on CM5 chip, antigen injected 7-600 nM
T1 construct: Bought protein; also called recombinant human TNF-α protein
T1 sequence (P01375 77-233 limits assumed): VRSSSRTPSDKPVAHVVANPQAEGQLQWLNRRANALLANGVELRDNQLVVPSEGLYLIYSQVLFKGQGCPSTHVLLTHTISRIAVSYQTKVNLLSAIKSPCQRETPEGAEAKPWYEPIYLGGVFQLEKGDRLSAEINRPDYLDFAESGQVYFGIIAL

| Kd [pM] | Binder |
| --- | --- |
| 7.27 | fusion protein BY19.6 (Fc fusion, also called BY19.6(κ, IgG1)) light: DIVMTQTPLSLSVTPGQPASISCRSSRSLVHSRGNTYLHWYLQKPGQSPQLLIYKVSNRFIGVPDRFSGSGSGTDFTLKISRVEAEDVGVYYCSQSTHLPFTFGQGTKVEIKRTVAAPSVFIFPPSDEQLKSGTASVVCLLNNFYPREAKVQWKVDNALQSGNSQESVTEQDSKDSTYSLSSTLTLSKADYEKHKVYACEVTHQGLSSPVTKSFNRGEC LPAQVAFTPYAPEPGSTCRLREYYDQTAQMCCSKCSPGQHAKVFCTKTSDTVCDSCEDSTYTQLWNWVPECLSCGSRCSSDQVETQACTREQNRICTCRPGWYCALSKQEGCRLCAPLRKCRPGFGVARPGTETSDVVCKPCAPGTFSNTTSSTDICRPHQIDKRV[left out - human IgG4 Fc with S228P (EU numbers)]GGGSGGGGSGGGGSQVQLVQSGAEVKKPGSSVKVSCKASGYSFTDYHIHWVRQAPGQGLEWMGVINPMYGTTDYNQRFKGRVTITADESTSTAYMELSSLRSEDTAVYYCARYDYFTGTGVYWGQGTLVTVSSASTKGPSVFPLAPCSRSTSESTAALGCLVKDYFPEPVTVSWNSGALTSGVHTFPAVLQSSGLYSLSSVVTVPSSSLGTKTYTCNVDHKPSNTKVDKRVES |
| 47.8 | fusion protein BY19.3 (other, Expressed in 293F cells; also called BY19.3 protein; BY19.3(κ, IgG4)) light: DIVMTQTPLSLSVTPGQPASISCRSSRSLVHSRGNTYLHWYLQKPGQSPQLLIYKVSNRFIGVPDRFSGSGSGTDFTLKISRVEAEDVGVYYCSQSTHLPFTFGQGTKVEIKRTVAAPSVFIFPPSDEQLKSGTASVVCLLNNFYPREAKVQWKVDNALQSGNSQESVTEQDSKDSTYSLSSTLTLSKADYEKHKVYACEVTHQGLSSPVTKSFNRGEC heavy: QVQLVQSGAEVKKPGSSVKVSCKASGYSFTDYHIHWVRQAPGQGLEWMGVINPMYGTTDYNQRFKGRVTITADESTSTAYMELSSLRSEDTAVYYCARYDYFTGTGVYWGQGTLVTVSSASTKGPSVFPLAPCSRSTSESTAALGCLVKDYFPEPVTVSWNSGALTSGVHTFPAVLQSSGLYSLSSVVTVPSSSLGTKTYTCNVDHKPSNTKVDKRV[left out - human IgG4 Fc with S228P (EU numbers)]GGGSGGGGSGGGGSLPAQVAFTPYAPEPGSTCRLREYYDQTAQMCCSKCSPGQHAKVFCTKTSDTVCDSCEDSTYTQLWNWVPECLSCGSRCSSDQVETQACTREQNRICTCRPGWYCALSKQEGCRLCAPLRKCRPGFGVARPGTETSDVVCKPCAPGTFSNTTSSTDICRPHQI |
| 7.25 | fusion protein BY19.7 (Fc fusion, also called BY19.7(κ, IgG1)) LPAQVAFTPYAPEPGSTCRLREYYDQTAQMCCSKCSPGQHAKVFCTKTSDTVCDSCEDSTYTQLWNWVPECLSCGSRCSSDQVETQACTREQNRICTCRPGWYCALSKQEGCRLCAPLRKCRPGFGVARPGTETSDVVCKPCAPGTFSNTTSSTDICRPHQIDKRV[left out - human IgG4 Fc with S228P (EU numbers)]GGGSGGGGSGGGGSDIVMTQTPLSLSVTPGQPASISCRSSRSLVHSRGNTYLHWYLQKPGQSPQLLIYKVSNRFIGVPDRFSGSGSGTDFTLKISRVEAEDVGVYYCSQSTHLPFTFGQGTKVEIKRTVAAPSVFIFPPSDEQLKSGTASVVCLLNNFYPREAKVQWKVDNALQSGNSQESVTEQDSKDSTYSLSSTLTLSKADYEKHKVYACEVTHQGLSSPVTKSFNRGEC heavy: QVQLVQSGAEVKKPGSSVKVSCKASGYSFTDYHIHWVRQAPGQGLEWMGVINPMYGTTDYNQRFKGRVTITADESTSTAYMELSSLRSEDTAVYYCARYDYFTGTGVYWGQGTLVTVSSASTKGPSVFPLAPCSRSTSESTAALGCLVKDYFPEPVTVSWNSGALTSGVHTFPAVLQSSGLYSLSSVVTVPSSSLGTKTYTCNVDHKPSNTKVDKRVES |
